The values below come from US8067379B2, “Sulfur compounds as inhibitors of hepatitis C virus NS3 serine protease” (Schering Corporation, priority 2004, dated 2011).

One experiment deals with Recombinant heterodimeric HCV NS3/NS4A protease (strain 1a) (Hepatitis C virus genotype 1a, UniProt P27958). The experiment in a line: Spectrophotometric assay for HCV serine protease inhibitory activity (chromogenic ester substrates). Conditions: Table 3, sulfide compounds; HCV serine protease; read-out: Ki* range. The format is biochemical.
Usually Ki stands for the equilibrium dissociation constant of an inhibitor or competing ligand from its target. Regarding `C=CCNC(=O)C(=O)C(CCCC)NC(=O)[C@@H]1[C@@H]2[C@H](CN1C(=O)[C@@H](NC(=O)N[C@H](CSCc1ccccc1)C(C)C)C(C)(C)C)C2(C)C` (stereo partly drawn) [Compound 105], the inhibition constant (Ki) was > 250 nM.

Turning to `CC(C)(C)[C@H](NC(=O)NC1(CSc2ccccn2)CCCCC1)C(=O)N1C[C@H]2[C@@H]([C@H]1C(=O)NC(CC1CCC1)C(=O)C(N)=O)C2(C)C` (stereo partly drawn) [Compound 127], the Ki is < 75 nM.

The experiment is the same for the next values; noted with them: Table 3, sulfone compounds, rows without Prep. Ex. number; read-out: Ki* (numeric value, unlabelled structures at end of sulfone table, column without head).
`C=CCNC(=O)C(=O)C(CC1CC1)NC(=O)[C@@H]1[C@@H]2[C@H](CN1C(=O)[C@@H](NC(=O)NC1(CS(=O)(=O)C(C)(C)CC)CCCCC1)C1(C)CCCCC1)C2(C)C` (stereo partly drawn): the inhibitory constant (Ki) was 14 nM.

As for `C=CCNC(=O)C(=O)C(CCCC)NC(=O)[C@@H]1[C@@H]2[C@H](CN1C(=O)[C@@H](NC(=O)NC1(CS(=O)(=O)C(C)(C)C)CCCCC1)C1(C)CCCC1)C2(C)C` (stereo partly drawn), the Ki came to 22 nM.

The same experiment, now with this note: Table 3, sulfone compounds; HCV serine protease; read-out: Ki* range.
Regarding `CC(C)(C)[C@H](NC(=O)N[C@H](CS(=O)(=O)Cc1ccccc1)C(C)(C)C)C(=O)N1C[C@H]2[C@@H]([C@H]1C(=O)NC(CC1CC1)C(=O)C(N)=O)C2(C)C` (stereo partly drawn) [Compound 169], the Ki was < 75 nM.

Regarding `C=CCNC(=O)C(=O)C(CCC)NC(=O)[C@@H]1[C@@H]2[C@H](CN1C(=O)[C@@H](NC(=O)NC1(CS(=O)(=O)C(C)(C)C)CCCCC1)C(C)(C)C)C2(C)C` (stereo partly drawn) [Compound 228], the inhibitory constant (Ki) is < 75 nM.

In the case of `C=CCNC(=O)C(=O)C(CC1CCC1)NC(=O)[C@@H]1[C@@H]2[C@H](CN1C(=O)[C@@H](NC(=O)NC1(CS(=O)(=O)C(C)(C)C)CCCCC1)C(C)(C)C)C2(C)C` (stereo partly drawn) [Compound 216], the Ki is < 75 nM.

`C=CCNC(=O)C(=O)C(CC1CCC1)NC(=O)[C@@H]1[C@@H]2[C@H](CN1C(=O)[C@@H](NC(=O)NC1(CS(C)(=O)=O)CCCCC1)C(C)(C)C)C2(C)C` (stereo partly drawn) [Compound 215]: the inhibition constant Ki was < 75 nM.

`CC(C)[C@@H](CS(=O)(=O)c1ccccc1)NC(=O)N[C@H](C(=O)N1C[C@H]2[C@@H]([C@H]1C(=O)NC(CC1CC1)C(=O)C(N)=O)C2(C)C)C1CCCCC1` (stereo partly drawn) [Compound 164]: the Ki was < 75 nM.

For the compound `C=CCNC(=O)C(=O)C(CC1CC1)NC(=O)[C@@H]1[C@@H]2[C@H](CN1C(=O)[C@@H](NC(=O)NC1(CS(=O)(=O)C(C)(C)C)CCCCC1)C1(C)CCCCC1)C2(C)C` (stereo partly drawn) [Compound 290], the Ki is < 75 nM.

For the compound `CC(C)(C)[C@H](NC(=O)NC1(C2CCCS2(=O)=O)CCCCC1)C(=O)N1C[C@H]2[C@@H]([C@H]1C(=O)NC(CC1CCC1)C(=O)C(N)=O)C2(C)C` (stereo partly drawn) [Compound 305], the inhibitory constant (Ki) lay within 75 to 250 nM.

The same experiment, now with this note: Table 3A; class symbols; read-out: Ki* Range.
With `C=CCNC(=O)C(=O)[C@H](CCC1CC1)NC(=O)[C@@H]1[C@@H]2[C@H](CN1C(=O)[C@@H](NC(=O)NC1(CS(=O)(=O)C(C)(C)CF)CCCCC1)C(C)(C)C)C2(C)C` [Compound 750], the inhibitory constant (Ki) was < 75 nM.

Consider `CC1(C)[C@@H]2[C@@H](C(=O)NC(CCC3CC3)C(=O)C(=O)NCCC3CC3)N(C(=O)[C@@H](NC(=O)NC3(CS(=O)(=O)C(C)(C)C)CCCCC3)C3CCCCC3)C[C@@H]21` (stereo partly drawn) [Compound 569], for which the inhibition constant Ki was < 75 nM.

Turning to `CC1([C@H](NC(=O)NC2(CS(=O)(=O)C(C)(C)C)CCCCC2)C(=O)N2C[C@H]3[C@@H]([C@H]2C(=O)NC(CCC2CC2)C(=O)C(=O)NCCC2CC2)C3(C)C)CCCCC1` (stereo partly drawn) [Compound 568], the Ki is < 75 nM.

As to `CC(C)S(=O)(=O)CC1(NC(=O)N[C@H](C(=O)N2C[C@H]3[C@@H]([C@H]2C(=O)NC(CC2CC2)C(=O)C(=O)NC2CC2)C3(C)C)C(C)(C)C)CCCCC1` (stereo partly drawn) [Compound 476], the Ki lay within 75 to 250 nM.

Consider `CC(C)(C)[C@H](NC(=O)NC1(CS(=O)(=O)C(C)(C)C)CCCCC1)C(=O)N1C[C@H]2[C@@H]([C@H]1C(=O)NC(CCC1CC1)C(=O)C(=O)NC1CC1)C2(C)C` (stereo partly drawn) [Compound 477], for which the inhibitory constant (Ki) was < 75 nM.

In the case of `C=CCNC(=O)C(=O)[C@H](CC1CC1)NC(=O)[C@@H]1[C@@H]2[C@H](CN1C(=O)[C@@H](NC(=O)NC1(C3CCCCS3(=O)=O)CCCCC1)C1(C)CCCCC1)C2(C)C` (single isomer, unassigned) [Compound 792], the inhibition constant (Ki) is < 75 nM.

On to `CCCNC(=O)C(=O)[C@H](CCCCF)NC(=O)[C@@H]1[C@@H]2[C@H](CN1C(=O)[C@@H](NC(=O)NC1(CS(=O)(=O)C(C)(C)C)CCCCC1)C1(C)CCCCC1)C2(C)C` [Compound 883-cu], for which the inhibition constant Ki was < 75 nM.

With `CCCCC(NC(=O)[C@@H]1[C@@H]2[C@H](CN1C(=O)[C@@H](NC(=O)NC1(CS(=O)(=O)C(C)(C)C)CCCCC1)C(C)(C)C)C2(Cl)Cl)C(=O)C(=O)NCCC` (stereo partly drawn) [Compound 595], the Ki was < 75 nM.

As for `C=CCNC(=O)C(=O)C(CC1CC1)NC(=O)[C@@H]1C[C@@H](NS(=O)(=O)c2ccc(OC)cc2)CN1C(=O)[C@@H](NC(=O)NC1(CS(=O)(=O)C(C)(C)C)CCCCC1)C(C)(C)C` (stereo partly drawn) [Compound 654], the Ki was > 250 nM.

With `C=CCNC(=O)C(=O)C(CCCC)NC(=O)[C@@H]1[C@@H]2[C@H](CN1C(=O)[C@@H](NC(=O)N[C@@]1(CS(=O)(=O)C(C)(C)C)[C@H](C)CCC[C@@H]1C)C1(C)CCCCC1)C2(C)C` (stereo partly drawn) [Compound 474], the inhibitory constant (Ki) was < 75 nM.

On to `CCCCC(NC(=O)[C@@H]1[C@@H]2[C@H](CN1C(=O)[C@@H](NC(=O)NC1(CS(=O)(=O)C(C)(C)C)CCCCC1)C1(C)CCCCC1)C2(C)C)C(=O)C(=O)NCc1ccccc1` (stereo partly drawn) [Compound 694], for which the Ki was < 75 nM.

Take `CCCC(NC(=O)[C@@H]1[C@@H]2[C@H](CN1C(=O)[C@@H](NC(=O)NC1(CS(=O)(=O)C(C)(C)C)CCCCC1)C1(C)CCCCC1)C2(C)C)C(=O)C(=O)NCc1nccs1` (stereo partly drawn) [Compound 599]: the Ki was < 75 nM.

In the case of `CCC[C@H](NC(=O)[C@@H]1[C@@H]2[C@H](CN1C(=O)[C@@H](NC(=O)NC1(CS(=O)(=O)C(C)(C)C)CCCCC1)C(C)(C)C)C2(Cl)Cl)C(=O)C(=O)NC1CC1` [Compound 723], the Ki was < 75 nM.

On to `CCC[C@H](NC(=O)[C@@H]1[C@@H]2[C@H](CN1C(=O)[C@@H](NC(=O)NC1([C@H]3CCCS3(=O)=O)CCC(C)(C)CC1)C(C)(C)C)C2(C)C)C(=O)C(=O)NC1CC1` [Compound 883-dx], for which the inhibition constant Ki was < 75 nM.

Take `CCCC[C@H](NC(=O)[C@@H]1[C@@H]2[C@H](CN1C(=O)[C@@H](NC(=O)NC1(C3OCCS3(=O)=O)CCCCC1)C1(C)CCCCC1)C2(C)C)C(=O)C(=O)NCCC` (stereo partly drawn) [Compound 883-cz]: the Ki was < 75 nM.

Regarding `C=CCNC(=O)C(=O)[C@H](CCCC)NC(=O)[C@@H]1[C@@H]2[C@H](CN1C(=O)[C@@H](NC(=O)NC1([C@@H]3CC(C)(C)CCS3(=O)=O)CCCCC1)C(C)(C)C)C2(C)C` [Compound 858], the inhibition constant Ki was < 75 nM.

For the compound `C=CCNC(=O)C(=O)[C@H](CCCC)NC(=O)[C@@H]1[C@@H]2[C@H](CN1C(=O)[C@@H](NC(=O)NC1(C3CCCCS3(=O)=O)CCCCC1)C(C)(C)C)C2(C)C` (stereo partly drawn) [Compound 830], the Ki was < 75 nM.

As for `C=CCNC(=O)C(=O)[C@H](CCC1CC1)NC(=O)[C@@H]1[C@@H]2[C@H](CN1C(=O)[C@@H](NC(=O)NC1(CS(=O)(=O)C(C)(C)COC)CCCCC1)C(C)(C)C)C2(C)C` [Compound 753], the Ki was < 75 nM.

As to `C=CCNC(=O)C(=O)[C@H](CC1CC1)NC(=O)[C@@H]1[C@@H]2[C@H](CN1C(=O)[C@@H](NC(=O)NC1(CS(=O)(=O)C(C)(C)C)CCCCC1)C1(C)CCCC1)C2(C)C` [Compound 735], the Ki is < 75 nM.

Consider `C=CCNC(=O)C(=O)[C@H](CCCC)NC(=O)[C@@H]1[C@@H]2[C@H](CN1C(=O)[C@@H](NC(=O)NC1(C3CCCS3(=O)=O)CCCCC1)C(C)(C)C)C2(Cl)Cl` (stereo partly drawn) [Compound 787], for which the Ki was < 75 nM.

In the case of `CCCC[C@H](NC(=O)[C@@H]1[C@@H]2[C@H](CN1C(=O)[C@@H](NC(=O)NC1(C3OCC(C)(C)S3(=O)=O)CCCCC1)C1(C)CCCCC1)C2(C)C)C(=O)C(=O)NC1CC1` (stereo partly drawn) [Compound 883-en], the Ki was < 75 nM.

`CC1([C@H](NC(=O)NC2(CS(=O)(=O)C(C)(C)C)CCCCC2)C(=O)N2C[C@H]3[C@@H]([C@H]2C(=O)NC(CCC2CCC2)C(=O)C(=O)NC2CC2)C3(C)C)CCCCC1` (stereo partly drawn) [Compound 497]: the Ki was < 75 nM.

On to `CCCNC(=O)C(=O)[C@H](CC1CC1)NC(=O)[C@@H]1[C@@H]2[C@H](CN1C(=O)[C@@H](NC(=O)NC1(CS(=O)(=O)C3(C)CCOCC3)CCCCC1)C(C)(C)C)C2(C)C` [Compound 883-cv], for which the Ki was < 75 nM.

In the case of `C=CCNC(=O)C(=O)[C@H](CCC)NC(=O)[C@@H]1[C@@H]2[C@H](CN1C(=O)[C@@H](NC(=O)NC1(CS(=O)(=O)C3(C)CCOCC3)CCCCC1)C(C)(C)C)C2(C)C` [Compound 822], the Ki is < 75 nM.

As to `C=CCNC(=O)C(=O)C(CC1CC1)NC(=O)[C@@H]1[C@@H]2[C@H](CN1C(=O)[C@@H](NC(=O)NC(CCC)(CCC)CS(=O)(=O)C(C)(C)C)C1(C)CCCCC1)C2(C)C` (stereo partly drawn) [Compound 462], the Ki was > 250 nM.

In the case of `C=CCNC(=O)C(=O)C(CC1CC1)NC(=O)[C@@H]1C[C@@H](C#N)CN1C(=O)[C@@H](NC(=O)NC1(CS(=O)(=O)C(C)(C)C)CCCCC1)C(C)(C)C` (stereo partly drawn) [Compound 673], the inhibition constant Ki was > 250 nM.

On to `C=CCNC(=O)C(=O)[C@H](CCC1CC1)NC(=O)[C@@H]1[C@@H]2[C@H](CN1C(=O)[C@@H](NC(=O)NC1(CS(=O)(=O)C(C)(C)COC)CCCCC1)C1(C)CCCCC1)C2(C)C` [Compound 806], for which the Ki is < 75 nM.

Consider `CCCC(NC(=O)[C@@H]1[C@@H]2[C@H](CN1C(=O)[C@@H](NC(=O)NC1(CS(=O)(=O)C(C)(C)C)CCCCC1)C1(C)CCCCC1)C2(C)C)C(=O)C(=O)NCCC(C)C` (stereo partly drawn) [Compound 534], for which the inhibition constant (Ki) is > 250 nM.

Turning to `C=CCNC(=O)C(=O)[C@H](CCC1CC1)NC(=O)[C@@H]1[C@@H]2[C@H](CN1C(=O)[C@@H](NC(=O)NC1([C@H]3CCCS3(=O)=O)CCCCC1)C(C)(C)C)C2(Cl)Cl` [Compound 883-e], the inhibition constant (Ki) was < 75 nM.

The experiment is the same for the next values; noted with them: Table 4A; read-out: Ki* Range.
For the compound `C=CCNC(=O)C(=O)C(CC1CC1)NC(=O)[C@@H]1[C@@H]2[C@H](CN1C(=O)[C@@H](NC(=O)N[C@H](CS(=O)(=O)N(C)C(C)(C)C)C(C)C)C1CCCCC1)C2(C)C` (stereo partly drawn) [Compound 1109], the inhibition constant (Ki) lay within 75 to 250 nM.

For `C#CCCC(NC(=O)[C@@H]1[C@@H]2[C@H](CN1C(=O)[C@@H](NC(=O)N[C@H](CS(=O)(=O)N(C)C(C)(C)C)C(C)C)C(C)(C)C)C2(C)C)C(=O)C(=O)NCC=C` (stereo partly drawn) [Compound 1102], the Ki is < 75 nM.
